Among the data in the supplement of paper PMC4604168 (melanoma cell lines) are cell count values, retold here.

This is one part of the list. Many values rest on one well or one pass, so single values are uncertain.
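Note: cells treated in 1,536-well plates, then fixed and DAPI-stained, with nuclei counted from automated high-throughput microscope images.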

For the test, the system named is COLO800. Put plainly: cell count relative to DMSO control; melanoma cells; higher = more viable cells. As to conditions: library dose: standard library concentration; 72 h.
`CC[C@]1(O)C[C@H]2CN(CCc3c([nH]c4ccccc34)[C@@](C(=O)OC)(c3cc4c(cc3OC)N(C=O)[C@H]3[C@@](O)(C(=O)OC)[C@H](OC(C)=O)[C@]5(CC)C=CCN6CC[C@]43[C@@H]65)C2)C1` [vincristine] + COc1ccc2c(c1)CCC1C2CCC2(C)C(NCCCCCCN3C(=O)C=CC3=O)CCC12 [U73122] (first compound 0.0005 µM, partner dose 2 µM) displayed a cell count of 99.1%.

On to `Cc1cc(Nc2cc(N3CCN(C)CC3)nc(Sc3ccc(NC(=O)C4CC4)cc3)n2)n[nH]1` [Tozasertib] + N#Cc1c(O)c2c(-c3ccc(-c4ccccc4O)cc3)csc2[nH]c1=O [A769662] (first compound 0.03 µM, partner dose 10 µM), for which the cell count turned out to be 81.6%.

In turn, `Cc1cc(Nc2cc(N3CCN(C)CC3)nc(Sc3ccc(NC(=O)C4CC4)cc3)n2)n[nH]1` [Tozasertib] + Cn1cncc1[C@@](N)(c1ccc(Cl)cc1)c1ccc2c(c1)c(-c1cccc(Cl)c1)cc(=O)n2C [tipifarnib] (first compound 0.03 µM, partner dose 0.05 µM) registered a cell count of 53.4%.

Regarding `Cc1cc(Nc2cc(N3CCN(C)CC3)nc(Sc3ccc(NC(=O)C4CC4)cc3)n2)n[nH]1` [Tozasertib] + C#Cc1cccc(Nc2ncnc3cc(OCCOC)c(OCCOC)cc23)c1 [erlotinib] (first compound 0.03 µM, partner dose 4 µM), the cell count came to 71.1%.

`Cc1cc(Nc2cc(N3CCN(C)CC3)nc(Sc3ccc(NC(=O)C4CC4)cc3)n2)n[nH]1` [Tozasertib] + COc1cc(N2CCC(N3CCN(C)CC3)CC2)ccc1Nc1ncc(Cl)c(Nc2ccccc2S(=O)(=O)C(C)C)n1 [NVP-TAE684] (first compound 0.03 µM, partner dose 0.4 µM) registered a cell count of 41.2%.

For the molecule `CC[C@]1(O)C[C@H]2CN(CCc3c([nH]c4ccccc34)[C@@](C(=O)OC)(c3cc4c(cc3OC)N(C=O)[C@H]3[C@@](O)(C(=O)OC)[C@H](OC(C)=O)[C@]5(CC)C=CCN6CC[C@]43[C@@H]65)C2)C1` [vincristine] + CCc1ccc(CCOc2ccc(CC3SC(=O)NC3=O)cc2)nc1 [pioglitazone] (first compound 0.0005 µM, partner dose 10 µM), the cell count is 32.9%.

On to `Cc1cc(Nc2cc(N3CCN(C)CC3)nc(Sc3ccc(NC(=O)C4CC4)cc3)n2)n[nH]1` [Tozasertib] + COc1cc(Nc2ncc(F)c(Nc3ccc4c(n3)NC(=O)C(C)(C)O4)n2)cc(OC)c1OC [Tamatinib] (first compound 0.03 µM, partner dose 2 µM), for which the cell count turned out to be 17.6%.

For the molecule `Cc1cc(Nc2cc(N3CCN(C)CC3)nc(Sc3ccc(NC(=O)C4CC4)cc3)n2)n[nH]1` [Tozasertib] + C[C@@H](Oc1cc(-c2cnn(C3CCNCC3)c2)cnc1N)c1c(Cl)ccc(F)c1Cl [Crizotinib] (first compound 0.03 µM, partner dose 1 µM), the cell count amounted to 40.5%.

Molecule `CC[C@]1(O)C[C@H]2CN(CCc3c([nH]c4ccccc34)[C@@](C(=O)OC)(c3cc4c(cc3OC)N(C=O)[C@H]3[C@@](O)(C(=O)OC)[C@H](OC(C)=O)[C@]5(CC)C=CCN6CC[C@]43[C@@H]65)C2)C1` [vincristine] + CN(NC(=O)CC(=O)NN(C)C(=S)c1ccccc1)C(=S)c1ccccc1 [STA4783] (first compound 0.0005 µM, partner dose 0.03 µM) returned a cell count of 16.2%.

In turn, `CC[C@]1(O)C[C@H]2CN(CCc3c([nH]c4ccccc34)[C@@](C(=O)OC)(c3cc4c(cc3OC)N(C=O)[C@H]3[C@@](O)(C(=O)OC)[C@H](OC(C)=O)[C@]5(CC)C=CCN6CC[C@]43[C@@H]65)C2)C1` [vincristine] + NC1(c2ccc(-c3nc4ccn5c(=O)[nH]nc5c4cc3-c3ccccc3)cc2)CCC1 [MK2206] (first compound 0.0005 µM, partner dose 2 µM) came in with a cell count of 41%.

In turn, `CC[C@]1(O)C[C@H]2CN(CCc3c([nH]c4ccccc34)[C@@](C(=O)OC)(c3cc4c(cc3OC)N(C=O)[C@H]3[C@@](O)(C(=O)OC)[C@H](OC(C)=O)[C@]5(CC)C=CCN6CC[C@]43[C@@H]65)C2)C1` [vincristine] + O=C(O)c1ccc(-c2c[nH]c3ncc(-c4ccccc4)cc23)cc1C1CCCC1 [GSK650394] (first compound 0.0005 µM, partner dose 0.8 µM) gave a cell count of 123%.

Molecule `CC[C@]1(O)C[C@H]2CN(CCc3c([nH]c4ccccc34)[C@@](C(=O)OC)(c3cc4c(cc3OC)N(C=O)[C@H]3[C@@](O)(C(=O)OC)[C@H](OC(C)=O)[C@]5(CC)C=CCN6CC[C@]43[C@@H]65)C2)C1` [vincristine] + COc1ccc(C2=N[C@@H](c3ccc(Cl)cc3)[C@@H](c3ccc(Cl)cc3)N2C(=O)N2CCNC(=O)C2)c(OC(C)C)c1 [Nutlin-3] (first compound 0.0005 µM, partner dose 0.5 µM) returned a cell count of 83.8%.

As to `N#CC[C@H](C1CCCC1)n1cc(-c2ncnc3[nH]ccc23)cn1` [ruxolitinib] + CC(=O)c1c(C)c2cnc(Nc3ccc(N4CCNCC4)cn3)nc2n(C2CCCC2)c1=O [palbociclib] (first compound 5 µM, partner dose 0.2 µM), the cell count was determined as 56.5%.
